Data taken from the supplement of paper PMC10126150.
Sequences with one replicate were seen in a single cluster, so their values are uncertain.

Test system: ATP
Assay: switch fluorescence ratio, 500 uM ATP over buffer (Cy3 cluster intensity, sum of 5 cycles each) (fold (ratio)); higher = stronger signal-on switching upon ATP binding; sequences stand for … in TCGTCGGCAGCGTCAGATGTGTATAAGAGACAGTTTTTTTTTTTTTTTTTTTTTTTTT…TC
Details: aptamer strand: ATP DNA aptamer (quencher-CACCTGGGGGAGTATTGCGGAGGAAGG + anchor), 100 nM annealed; ATP concentration: 500 uM; one replicate
Method in brief: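 The fluorescence ratio divides summed target-cycle Cy3 intensity by summed buffer-cycle Cy3 intensity for each cluster and is averaged per switch-domain sequence. Cy3-labelled switching-strand clusters on a modified Illumina MiSeq flow-cell were annealed to 100 nM quencher-labelled ATP aptamer, then imaged in selection buffer and again after 15 min with 500 uM ATP at 22 °C. Five such cycles were run, with NaOH stripping and re-annealing between them, and clusters outside 100-1000 RFU were excluded.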
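Also: ATP exposure 15 min at 22 °C before imaging.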

Row | Sequence | switch fluorescence ratio
1 | GAGCAGGGAT | 1.06
2 | CACCGGAGCG | 1.58
3 | AATGGCCGTC | 1.04
4 | GCTGACACTC | 1.03
5 | ATCATGTCGT | 1
6 | TGATACATCA | 0.972
7 | TTTGCTCGAT | 0.98
8 | CTCTAAACTC | 1.17
9 | ATAATAATA | 0.945
10 | CAGGGATACG | 1.03
11 | AATTCGGTAG | 1.03
12 | CGCCGTACGC | 1.07
13 | TGTTGCCAGG | 1.02
14 | GGCCTTTGAC | 0.98
15 | GGACGTCCAG | 0.98
16 | TTCCACGTTC | 1.06
17 | TATGAAGAT | 1.04
18 | CGTATCGAGC | 0.987
19 | CGGTTCTTGG | 0.983
20 | ATGCGTCTTT | 0.984
21 | CTGGCGTATT | 1.02
22 | AGCTACTGCT | 1.03

Row | Sequence | switch fluorescence ratio
23 | AGTCCTGAGG | 0.969
24 | CAATTGGTGG | 0.915
25 | CTTTTCATTT | 1.02
26 | ACAGCTGGGA | 1.01
27 | CGGGTCGCTG | 1.02
28 | GCTTAAATTC | 1
29 | CTTGACGATC | 1.02
30 | CTGGGTTGA | 1.04
31 | CCGGGGGTGA | 1.09
32 | GCAGATATGG | 1.02
33 | GGCGCGGGAG | 0.98
34 | TCGATGACCT | 1.1
35 | CGCAGCTCGT | 1.24
36 | TTGAAGGACC | 1.02
37 | CCTCAGGGCT | 1.23
38 | ACCTGTCTCG | 1.09
39 | GCGTGCCACC | 0.984
40 | AACGGAAAAG | 1.76
41 | TGTTGATTTC | 1.03
42 | TCGACTGTGG | 1
43 | CGACGGCAGG | 1.01
44 | GATACGGAAA | 1.03

Row | Sequence | switch fluorescence ratio
45 | AGTAAGGATT | 0.961
46 | GTTGTAATTG | 0.94
47 | AAAAGTGCTA | 0.959
48 | GACTGGGATA | 1.01
49 | AATTAACGTG | 1.04
50 | GGTGGATCGG | 0.989
51 | GATAGGATGC | 1.01
52 | GCTATTTGTG | 0.997
53 | TATGCGCGGA | 1.02
54 | ATTAGTTCT | 1.03
55 | CATTCGGTAG | 1.01
56 | GGAGTAGTAG | 1.08
57 | TGGAACTCGA | 1.01
58 | TCTCGCAAAG | 1.04
59 | GGCACTCGTG | 0.994
60 | TCGTGAATTG | 1.09
61 | TATTTCCTCC | 1.29
62 | GGAGGAAGTG | 0.981
63 | TATGCGGGTG | 0.972
64 | TTTGATTAG | 1.02
65 | ATGTTAGGAG | 1.01
66 | GGGCGTTTTG | 0.967

Row | Sequence | switch fluorescence ratio
67 | ACACCTGGTA | 1.06
68 | GCAAGGTAGT | 1.02
69 | GGGAACCAGT | 0.97
70 | AGGAGCAGCC | 1.02
71 | TTGTATCCCC | 1.02
72 | GTGTTATACT | 1.03
73 | GCTTCGAGGA | 0.992
74 | TCCAGAGAT | 0.994
75 | GGTAATGGTC | 0.972
76 | GGGATAAACA | 1.02
77 | CCTAATTTGA | 0.978
78 | GCGAGTGGGT | 0.993
79 | GAACATTTCA | 0.997
80 | TATGTCCTCT | 1.03
81 | ATACTTTGGA | 0.998
82 | TTACGTCGAC | 1.03
83 | TGGAGATTGC | 0.986
84 | TTGGCGTCTT | 0.996
85 | GCAGTGTGTG | 0.949
